Data taken from the supplement of paper PMC4166925.
± gives the standard deviation of the averaged measurements. Over roughly 33,000 sequences, “E-score (dimensionless, -0.5 to 0.5)” has its median near -0.046; the highest 2% begin near 0.36. Some of the results follow.

The sequences below were run on T1, SpTbr T-box DNA-binding domain (GST fusion) (assay: PBM E-score of 8-mer (E-score (dimensionless, -0.5 to 0.5)); Tbr is Tbrain of the sea star Patiria miniata (Pm) or the sea urchin Strongylocentrotus purpuratus (Sp); higher = stronger binding preference; most listed sequences are background and not binding sites). Conditions: the construct has about 5 more residues each side.
T1 sequence: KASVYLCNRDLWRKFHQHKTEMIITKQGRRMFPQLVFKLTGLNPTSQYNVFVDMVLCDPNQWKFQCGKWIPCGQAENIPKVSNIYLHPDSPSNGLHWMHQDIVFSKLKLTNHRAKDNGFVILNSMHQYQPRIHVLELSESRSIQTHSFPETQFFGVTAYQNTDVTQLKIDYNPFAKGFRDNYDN
How it was run: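 Each ungapped 8-mer received an enrichment E-score from the Universal PBM Analysis Suite, averaged over duplicate arrays. The proteins were Tbr T-box DNA-binding domains, covering the whole T-box plus about five flanking residues, fused to GST and expressed in BL21 E. coli at 20 °C before glutathione affinity purification. Universal Agilent oligonucleotide arrays were made double-stranded by primer extension and incubated with 200 nM protein in PBS (pH 7.5). The arrays were then scanned and quantified, and every 8-mer was scored from probe intensities.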

Going from AGTGACGG to ACTTTGCC, the “PBM E-score of 8-mer” value falls from 0.218 ± 0.027 to -0.058 ± 0.051.

First: AGAGAAAA
Second: ATTGGACG
The “PBM E-score of 8-mer” value of the first is higher: -0.176 ± 0.038 for the first, -0.289 ± 0.017 for the second.

First: GTATATAA
Second: CCCTTTGC
The “PBM E-score of 8-mer” value of the first is higher: -0.119 ± 0.034 for the first, -0.174 ± 0.0099 for the second.

First: ATTTCGGC
Second: AGTGTTTA
The “PBM E-score of 8-mer” value of the first is lower: 0.0621 ± 0.039 for the first, 0.245 ± 0.062 for the second.

Compared with CAGCTGCC, AGCCAAGA is lower in “PBM E-score of 8-mer” value: -0.0128 ± 0.074 for the first, -0.218 ± 0.069 for the second.

ACAATCCA and AACTTAGC are within error of each other in “PBM E-score of 8-mer” value: -0.0282 ± 0.062 for the first, 0.0443 ± 0.063 for the second.

Going from AGATAAAG to GGATTGCC, the “PBM E-score of 8-mer” value rises from -0.181 ± 0.053 to -0.0182 ± 0.03.

ATTTAAAT and ATGACTCG are within error of each other in “PBM E-score of 8-mer” value: -0.06656 ± 0.00039 for the first, -0.0945 ± 0.034 for the second.

First: ACACGAGC
Second: CAAGCATG
The “PBM E-score of 8-mer” value of the first is higher: 0.143 ± 0.065 for the first, 0.0445 ± 0.0049 for the second.

Compared with CAATTCAA, ACCTTAAT is higher in “PBM E-score of 8-mer” value: -0.0384 ± 0.006 for the first, 0.133 ± 0.004 for the second.

First: AATCGGGC
Second: CATTCGCG
The “PBM E-score of 8-mer” value of the first is lower: -0.214 ± 0.038 for the first, 0.389 ± 0.0059 for the second.

First: CGACGGGC
Second: CTAACGGC
The “PBM E-score of 8-mer” value of the first is lower: -0.126 ± 0.0078 for the first, 0.203 ± 0.012 for the second.

Compared with AGTTGGCA, ACTTCACT is lower in “PBM E-score of 8-mer” value: 0.284 ± 0.0051 for the first, 0.147 ± 0.01 for the second.

ATTTAAAG and AATAAGGA are within error of each other in “PBM E-score of 8-mer” value: -0.21 ± 0.099 for the first, -0.177 ± 0.017 for the second.

Compared with GCAATGAA, GTGATAGA is higher in “PBM E-score of 8-mer” value: 0.029 ± 0.0097 for the first, 0.303 ± 0.014 for the second.

First: GCGGAAGC
Second: CTGGGACC
The “PBM E-score of 8-mer” value of the first is higher: -0.00368 ± 0.1 for the first, -0.174 ± 0.015 for the second.

Compared with CCGCGATC, CATTCCAC is lower in “PBM E-score of 8-mer” value: 0.221 ± 0.054 for the first, 0.00277 ± 0.0014 for the second.

CTGCTCAA and AACCATAG are within error of each other in “PBM E-score of 8-mer” value: -0.0979 ± 0.022 for the first, -0.0674 ± 0.025 for the second.

Going from ACTGTGAC to GGCAAGCA, the “PBM E-score of 8-mer” value falls from 0.237 ± 0.023 to -0.152 ± 0.026.

GGCTTAGA and AACTCCAG are within error of each other in “PBM E-score of 8-mer” value: -0.287 ± 0.016 for the first, -0.232 ± 0.096 for the second.

GGATGACA and ATCCAAGG are within error of each other in “PBM E-score of 8-mer” value: 0.146 ± 0.068 for the first, 0.0545 ± 0.049 for the second.

Going from CTTAGTTA to ACAGTCGG, the “PBM E-score of 8-mer” value rises from -0.145 ± 0.069 to 0.0268 ± 0.042.

Going from TAACACGA to AGTCCTAA, the “PBM E-score of 8-mer” value falls from 0.288 ± 0.047 to -0.2154 ± 0.0017.

Compared with TGGACTAA, ACACACGT is higher in “PBM E-score of 8-mer” value: -0.235 ± 0.028 for the first, 0.288 ± 0.0081 for the second.

First: AGCAAAAA
Second: ACTATCGG
The “PBM E-score of 8-mer” value of the first is higher: -0.0315 ± 0.021 for the first, -0.145 ± 0.0086 for the second.

Going from CAATGTCA to CTTCCGTA, the “PBM E-score of 8-mer” value falls from 0.227 ± 0.028 to -0.158 ± 0.14.

First: ACGTAATC
Second: TCACGGCA
The “PBM E-score of 8-mer” value of the first is lower: -0.0447 ± 0.0023 for the first, 0.186 ± 0.013 for the second.

First: CCGAGGCG
Second: ACTCTGTG
The “PBM E-score of 8-mer” value of the first is higher: 0.296 ± 0.015 for the first, -0.0534 ± 0.07 for the second.

Compared with CCACATCA, AACCCCGG is lower in “PBM E-score of 8-mer” value: 0.213 ± 0.0094 for the first, -0.1205 ± 0.00093 for the second.

ATGGATTC and ACCCCTGA are within error of each other in “PBM E-score of 8-mer” value: -0.138 ± 0.041 for the first, -0.0646 ± 0.14 for the second.

Compared with AAGGTCAT, CGGTGCCC is higher in “PBM E-score of 8-mer” value: -0.251 ± 0.011 for the first, -0.174 ± 0.03 for the second.

First: AATTGAGT
Second: AAAAAAGT
The “PBM E-score of 8-mer” value of the first is lower: -0.2 ± 0.0027 for the first, -0.074 ± 0.11 for the second.

First: CTGTAACA
Second: GAATGGCC
The “PBM E-score of 8-mer” value of the first is higher: 0.284 ± 0.024 for the first, 0.0193 ± 0.0058 for the second.

Compared with CTCCGGTC, CATCGAGC is lower in “PBM E-score of 8-mer” value: -0.0822 ± 0.024 for the first, -0.17 ± 0.058 for the second.

CAGTCGTC and CCTCCTGA are within error of each other in “PBM E-score of 8-mer” value: -0.0677 ± 0.025 for the first, -0.0599 ± 0.024 for the second.

Compared with CATTCAAG, CTACTTAA is higher in “PBM E-score of 8-mer” value: -0.0193 ± 0.035 for the first, 0.0422 ± 0.019 for the second.

CCTCCGTA and AGTCCTAG are within error of each other in “PBM E-score of 8-mer” value: -0.0797 ± 0.049 for the first, -0.136 ± 0.056 for the second.

Compared with GAGTATGC, GGCTCACA is higher in “PBM E-score of 8-mer” value: -0.243 ± 0.051 for the first, 0.161 ± 0.053 for the second.

Compared with GACACGTA, CAGCGTAG is lower in “PBM E-score of 8-mer” value: 0.29 ± 0.0077 for the first, -0.168 ± 0.0058 for the second.

CATGTCGG and AAGGACCG are within error of each other in “PBM E-score of 8-mer” value: -0.0356 ± 0.033 for the first, -0.114 ± 0.058 for the second.

First: AGCGTCTC
Second: ACCGTGAC
The “PBM E-score of 8-mer” value of the first is lower: -0.00741 ± 0.05 for the first, 0.0997 ± 0.0054 for the second.

First: ACTTGACC
Second: CGTGGTAC
The “PBM E-score of 8-mer” value of the first is lower: -0.233 ± 0.058 for the first, -0.0112 ± 0.075 for the second.

First: AAAAATGG
Second: TCCATACA
The “PBM E-score of 8-mer” value of the first is lower: -0.329 ± 0.016 for the first, -0.279 ± 0.03 for the second.
